{"source": "paper PMC8166750", "about": "(The Journal of Biological Chemistry, 2021)", "key": {"homomeric mammalian P2X5": {"biological_target": "homomeric mammalian P2X5 (Homo sapiens, UniProt Q93086)", "sequence (Q93086 whole entry)": "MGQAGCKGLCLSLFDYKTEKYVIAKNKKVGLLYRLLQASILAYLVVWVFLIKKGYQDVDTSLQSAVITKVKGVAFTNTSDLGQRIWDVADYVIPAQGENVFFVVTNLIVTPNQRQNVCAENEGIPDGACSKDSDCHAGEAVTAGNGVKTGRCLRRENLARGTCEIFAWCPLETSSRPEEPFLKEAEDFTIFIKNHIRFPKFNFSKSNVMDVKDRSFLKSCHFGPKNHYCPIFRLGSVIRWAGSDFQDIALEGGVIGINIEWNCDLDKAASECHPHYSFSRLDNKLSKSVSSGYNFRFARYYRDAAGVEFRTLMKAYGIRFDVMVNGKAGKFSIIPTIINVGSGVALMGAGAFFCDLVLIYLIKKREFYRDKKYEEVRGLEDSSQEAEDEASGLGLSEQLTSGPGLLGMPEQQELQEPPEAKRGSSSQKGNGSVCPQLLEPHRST", "test": "ATP current in cells expressing homomeric receptor", "assay_type": "cell-based"}, "hP2X1^WT": {"biological_target": "T1, hP2X1^WT (Homo sapiens, UniProt P51575)", "T1 sequence (P51575 1-399)": "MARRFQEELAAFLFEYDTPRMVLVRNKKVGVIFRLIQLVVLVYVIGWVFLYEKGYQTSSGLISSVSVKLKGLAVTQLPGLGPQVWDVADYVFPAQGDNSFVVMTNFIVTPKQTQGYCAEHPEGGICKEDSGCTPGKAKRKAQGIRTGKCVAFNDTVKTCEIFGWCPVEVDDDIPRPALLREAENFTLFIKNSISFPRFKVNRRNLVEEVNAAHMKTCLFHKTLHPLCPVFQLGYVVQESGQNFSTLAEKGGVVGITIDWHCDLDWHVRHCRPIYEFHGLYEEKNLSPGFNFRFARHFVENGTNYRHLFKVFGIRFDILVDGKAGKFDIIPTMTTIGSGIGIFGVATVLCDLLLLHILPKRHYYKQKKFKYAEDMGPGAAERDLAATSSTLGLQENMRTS", "test": "ATP concentration-response, perforated patch clamp in HEK293 cells", "assay_type": "cell-based"}, "zfP2X4^E121A/r-beak": {"biological_target": "T2, zfP2X4^E121A/r-beak (Danio rerio, UniProt F8W463, A142T/D145S/E121A/F139S/G144S/K136T/N140V/R137P/R143H/R148A)", "T2 sequence (F8W463 1-389 E121A/K136T/R137P/F139S/N140V/A142T/R143H/G144S/D145S/R148A)": "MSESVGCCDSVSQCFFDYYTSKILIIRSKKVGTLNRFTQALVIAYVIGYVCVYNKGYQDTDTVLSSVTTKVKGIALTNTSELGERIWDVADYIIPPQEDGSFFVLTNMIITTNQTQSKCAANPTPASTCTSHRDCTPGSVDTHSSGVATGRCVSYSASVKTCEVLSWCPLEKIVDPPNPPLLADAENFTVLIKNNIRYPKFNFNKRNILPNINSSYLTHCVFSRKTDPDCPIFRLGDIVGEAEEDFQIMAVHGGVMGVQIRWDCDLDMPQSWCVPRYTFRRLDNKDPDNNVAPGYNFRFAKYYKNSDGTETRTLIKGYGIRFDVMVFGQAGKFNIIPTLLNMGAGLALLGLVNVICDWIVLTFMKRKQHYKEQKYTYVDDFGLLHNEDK", "test": "ATP concentration-response, chimera, perforated patch clamp in HEK293 cells"}, "AmP2X^WT": {"biological_target": "T3, AmP2X^WT (Amblyomma maculatum, UniProt G3MM57)", "T3 sequence (G3MM57 1-383)": "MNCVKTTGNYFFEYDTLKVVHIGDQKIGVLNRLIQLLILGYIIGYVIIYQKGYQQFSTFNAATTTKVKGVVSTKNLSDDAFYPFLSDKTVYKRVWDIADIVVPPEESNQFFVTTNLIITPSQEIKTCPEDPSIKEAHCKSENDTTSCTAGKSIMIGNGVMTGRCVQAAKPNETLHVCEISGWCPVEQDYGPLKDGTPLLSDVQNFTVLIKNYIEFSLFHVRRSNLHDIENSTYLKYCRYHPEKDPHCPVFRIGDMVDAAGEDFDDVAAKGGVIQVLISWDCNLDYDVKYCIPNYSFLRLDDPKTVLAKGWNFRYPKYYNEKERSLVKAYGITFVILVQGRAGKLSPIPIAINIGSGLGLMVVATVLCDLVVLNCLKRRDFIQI", "test": "ATP concentration-response, perforated patch clamp in HEK293 cells", "assay_type": "cell-based, gulf coast tick (Amblyomma maculatum)"}, "pdP2X7^WT": {"biological_target": "T4, pdP2X7^WT (Ailuropoda melanoleuca, UniProt G1M6C4)", "T4 sequence (G1M6C4 2-606)": "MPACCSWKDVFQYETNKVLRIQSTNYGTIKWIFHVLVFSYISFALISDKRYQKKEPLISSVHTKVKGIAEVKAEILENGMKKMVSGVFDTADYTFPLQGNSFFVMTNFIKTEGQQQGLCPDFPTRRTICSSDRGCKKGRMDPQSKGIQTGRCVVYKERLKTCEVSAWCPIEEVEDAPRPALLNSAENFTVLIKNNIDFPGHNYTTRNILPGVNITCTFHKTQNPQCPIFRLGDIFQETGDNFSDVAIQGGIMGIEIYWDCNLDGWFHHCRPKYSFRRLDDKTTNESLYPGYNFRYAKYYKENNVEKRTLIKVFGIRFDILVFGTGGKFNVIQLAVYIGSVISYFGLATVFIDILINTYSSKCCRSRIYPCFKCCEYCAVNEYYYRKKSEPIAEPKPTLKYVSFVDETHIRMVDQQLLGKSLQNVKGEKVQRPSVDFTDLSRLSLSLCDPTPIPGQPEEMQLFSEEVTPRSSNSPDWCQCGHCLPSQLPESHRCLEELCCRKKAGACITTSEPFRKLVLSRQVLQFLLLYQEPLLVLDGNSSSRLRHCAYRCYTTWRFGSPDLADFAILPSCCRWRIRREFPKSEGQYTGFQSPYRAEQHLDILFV", "test": "ATP concentration-response, perforated patch clamp in HEK293 cells", "assay_type": "cell-based, giant panda (Ailuropoda melanoleuca)"}, "hP2X2^E127A": {"biological_target": "T5, hP2X2^E127A (Homo sapiens, UniProt Q9UBL9, E127A)", "T5 sequence (Q9UBL9 1-471 E127A)": "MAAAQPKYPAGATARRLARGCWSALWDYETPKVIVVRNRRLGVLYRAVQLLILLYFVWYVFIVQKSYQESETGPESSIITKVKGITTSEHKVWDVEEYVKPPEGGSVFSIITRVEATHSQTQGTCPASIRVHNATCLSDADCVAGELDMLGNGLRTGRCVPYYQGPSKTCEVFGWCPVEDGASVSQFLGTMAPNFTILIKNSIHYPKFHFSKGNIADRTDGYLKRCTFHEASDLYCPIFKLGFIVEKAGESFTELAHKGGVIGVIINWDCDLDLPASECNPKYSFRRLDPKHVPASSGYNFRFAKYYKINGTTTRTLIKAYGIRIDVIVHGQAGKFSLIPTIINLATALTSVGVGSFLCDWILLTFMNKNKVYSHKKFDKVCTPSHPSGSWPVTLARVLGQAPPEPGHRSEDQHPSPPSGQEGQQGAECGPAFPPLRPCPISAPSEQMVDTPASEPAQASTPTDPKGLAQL", "test": "ATP concentration-response, perforated patch clamp in HEK293 cells", "assay_type": "cell-based"}}}
{"smiles": "Nc1ncnc2c1ncn2[C@@H]1O[C@H](COP(=O)(O)OP(=O)(O)OP(=O)(O)O)[C@@H](O)[C@H]1O", "note": "[ATP]", "values": [{"measurement": "ATP current", "setting": "homomeric mammalian P2X5", "result": "negligible"}, {"measurement": "EC50", "setting": "hP2X1^WT", "result": "0.86 ± 0.16", "unit": "µM"}, {"measurement": "nH (Hill coefficient) of ATP", "setting": "hP2X1^WT; hP2X1^WT", "result": "1.04 ± 0.16"}, {"measurement": "EC50", "setting": "zfP2X4^E121A/r-beak", "result": "> 1000", "unit": "µM"}, {"measurement": "EC50", "setting": "AmP2X^WT", "result": "43.5 ± 4.7", "unit": "µM"}, {"measurement": "nH (Hill coefficient) of ATP", "setting": "AmP2X^WT; AmP2X^WT", "result": "1.14 ± 0.11"}, {"measurement": "EC50", "setting": "pdP2X7^WT", "result": "95.7 ± 17.6", "unit": "µM"}, {"measurement": "nH (Hill coefficient) of ATP", "setting": "pdP2X7^WT; pdP2X7^WT", "result": "1.44 ± 0.32"}, {"measurement": "nH (Hill coefficient) of ATP", "setting": "hP2X2^E127A", "result": "1.26 ± 0.15"}]}
